These results are taken from ChEMBL document CHEMBL4888484, “Replenishing the malaria drug discovery pipeline: Screening and hit evaluation of the MMV Hit Generation Library 1 (HGL1) against asexual blood stage Plasmodium falciparum ,using a nano luciferase reporter read-out” (2022).

As usually defined, the % Inhibition is the change of the read-out against control, counted positive when it falls.

The campaign covered roughly 150,000 compounds. About 540 (0.36%) showed an effect of 50% or more. The list shows a part of the results.

This experiment has as its system Plasmodium falciparum. The experiment is described as follows: Primary screen in NF54 nanoGlo assay, in single point, at 2uM, 72h; a lower Z score goes with more inhibition. The experiment is classed as functional, Erythrocyte. The note with it: timepoint 72 hour.
With `COCCn1ccc(C(=O)N2CC(C)CC2c2ccc(OC)cc2)n1` (centres undefined), the “% Inhibition” value is listed as -2% and the Z score is given as 0.26.

Turning to `CCCS(=O)(=O)N1CCC[C@H](c2nnc(-c3cccs3)o2)C1`, the “% Inhibition” value is -14% and the Z score amounted to 2.59.

`COc1cc(C(=O)N[C@H]2CS(=O)(=O)C[C@@H]2OC)ccn1`: the “% Inhibition” value is listed as 1% and the Z score is on record as -0.2.

Consider `Cn1nccc1[C@H](CO)NC(=O)c1cccc2c1CCOC2`, for which the “% Inhibition” value is -2% and the Z score is recorded as 0.39.

For the compound `Cc1nc(NC(=O)NCC(=O)NC2CC2)ccc1Br`, the “% Inhibition” value came to 0% and the Z score is reported as -0.05.

As to `O=C(CCC(=O)N1CCCCCC1)NCc1cccs1`, the “% Inhibition” value was determined as 37% and the Z score is reported as -0.96.

With `CC(C)c1nc(C(C)NC(=O)C2COCCO2)cs1` (centres undefined), the “% Inhibition” value is given as -5% and the Z score is listed as 0.55.

With `COc1ccc([C@H]2C3CCCCC3(O)CCN2CC(=O)NCc2ccco2)cc1` (some centres undefined), the “% Inhibition” value is recorded as -8% and the Z score is listed as 1.19.

In the case of `Cc1c(C(=O)N2CCC[C@H]2c2nnc3ccccn23)oc2ccccc12`, the “% Inhibition” value is on record as -15% and the Z score worked out at 2.66.

Turning to `Cc1c[nH]c(CNC(=O)c2coc(COc3ccc(F)cc3)n2)n1`, the “% Inhibition” value stood at 1% and the Z score is recorded as -0.11.

`CCN(CC)C(=O)NCc1c(C)cc(C)[nH]c1=O`: the “% Inhibition” value is recorded as -3% and the Z score was 0.39.

`O=C(Nc1ccc(S(=O)(=O)Nc2cccc3ccccc23)cc1)c1ccccc1`: the “% Inhibition” value was -13% and the Z score came out at 1.68.

`C=C[C@H](CO)NC(=O)c1cc(Br)cnc1C1CC1`: the “% Inhibition” value is given as 3% and the Z score is -0.46.

On to `Cc1cnc(C[C@H]2CCN(C(=O)c3ccncc3)C2)n1CC1CC1`, for which the “% Inhibition” value is given as -5% and the Z score worked out at 0.67.

For the compound `Fc1cnc(/C=C/c2ccccc2)nc1N1CCOCC1`, the “% Inhibition” value is given as -2% and the Z score came to 0.33.

As to `CC(C)(C)OC(=O)N1CCN(c2nnc(N)s2)CC1`, the “% Inhibition” value is -11% and the Z score is on record as 1.2.

Take `Cc1occc1C(=O)NCCc1cccc2cccnc12`: the “% Inhibition” value is on record as -9% and the Z score was 1.4.

Take `O=c1c(S(=O)(=O)N2CCCC2)cccn1Cc1noc(-c2ccco2)n1`: the “% Inhibition” value was -4% and the Z score worked out at 0.46.

Regarding `COCc1cccc(C(=O)N2CCOc3ncccc32)c1`, the “% Inhibition” value is -5% and the Z score stood at 0.6.

In the case of `Cc1cc(C(=O)NC2CCN(C(C)C)C2c2ccc(F)c(F)c2)no1` (centres undefined), the “% Inhibition” value came out at 6% and the Z score is -0.7.

Turning to `CC[C@H](C)c1cc(C(=O)N(C)c2ccccc2S(C)(=O)=O)on1`, the “% Inhibition” value was -4% and the Z score was determined as 0.65.

As for `Cn1cc(Cl)c(-c2nc3c(cnn3Cc3cccnc3)[nH]2)n1`, the “% Inhibition” value is given as 0% and the Z score turned out to be 0.

As to `Cc1cc(C)c2c(CC(=O)N3CCC(c4nnc(N)[nH]4)CC3)coc2c1C`, the “% Inhibition” value was -6% and the Z score is reported as 0.81.

Turning to `CCC(=O)N[C@@H]1c2ccccc2C2(CCN(C(=O)C3=C(C)OCCO3)CC2)[C@H]1OCc1cccnc1`, the “% Inhibition” value is listed as 12% and the Z score is listed as -1.53.

`COC[C@H](C)NC(=O)C1(N2C(=O)c3ccccc3C2=O)CCCC1`: the “% Inhibition” value was found to be 17% and the Z score is -1.99.

For the compound `CCn1cc(CN2CCC(O)(c3cc(OC)cc(OC)c3)CC2)cn1`, the “% Inhibition” value is given as -15% and the Z score turned out to be 2.68.

For the compound `CCCc1cc(N2CCC[C@H](c3nnc(Cn4ccnc4)n3C)C2)nc(C)n1`, the “% Inhibition” value is given as -6% and the Z score came out at 0.74.

For `CC1OCCC1C(=O)N1CCC=Cc2ccccc21` (centres undefined), the “% Inhibition” value is -3% and the Z score was 0.41.

For `CN1CCC2C(CCCN2C(=O)C2(C3CCC3)CCC2)C1` (centres undefined), the “% Inhibition” value is listed as -15% and the Z score is given as 2.64.

On to `CCn1c(C)c(C)c2cc(C(=O)Nc3cccc(S(=O)(=O)N4CCOCC4)c3)ccc21`, for which the “% Inhibition” value stood at 31% and the Z score is -0.04.

For the compound `O=C(N[C@H]1CCCNC1=O)c1ccc(-c2ccc3c(c2)CCO3)cc1`, the “% Inhibition” value is listed as 3% and the Z score is recorded as -0.52.

Turning to `CC(C)c1cc(NCc2cccnc2Oc2ccc(F)cc2F)ncn1`, the “% Inhibition” value was -2% and the Z score is recorded as 0.32.

For `CCS(=O)(=O)NCCNc1ccccn1`, the “% Inhibition” value was determined as 1% and the Z score is given as -0.11.

Regarding `COCC(=O)N1CCCC[C@H]1C1=CCCN(Cc2c(C)noc2C)C1`, the “% Inhibition” value stood at 4% and the Z score is given as -0.71.

Turning to `Cc1nn(C)cc1NC(=O)CN1CCC[C@H](CNC(=O)c2ccco2)C1`, the “% Inhibition” value is given as -4% and the Z score is recorded as 0.7.

In the case of `Cc1occc1C(=O)NCc1ccc(CN2CC(C)CC(C)C2)cc1` (centres undefined), the “% Inhibition” value is on record as -1% and the Z score was determined as 0.08.

For the compound `CCn1c(CC2CCN(Cc3ccnn3-c3ccccc3)CC2)n[nH]c1=O`, the “% Inhibition” value is recorded as -1% and the Z score is 0.17.

Regarding `Cc1ccc(-c2[nH]c([C@H]3CC(=O)N(C4CC4)C3)nc2C)c(C)c1`, the “% Inhibition” value was -12% and the Z score came out at 2.21.

For the compound `O=C(Nc1cc(F)ccc1Br)NC1CCOC1C1CC1` (centres undefined), the “% Inhibition” value was -10% and the Z score turned out to be 1.24.

On to `COc1ccc(=O)n(C[C@@H](O)CCc2ccccc2)n1`, for which the “% Inhibition” value is recorded as -13% and the Z score came to 1.3.

As for `CC(C)(CNC1CCN(C(N)=O)CC1)c1ccc(C(F)(F)F)cc1`, the “% Inhibition” value is listed as -12% and the Z score stood at 1.9.

Turning to `O[C@H](COc1ccc2ccccc2c1)CN1CCN(c2nccs2)CC1`, the “% Inhibition” value worked out at 1% and the Z score is -0.11.
